Measurements from the supplement of paper PMC3334620.
The full ranking holds about 33,000 sequences; the median of “E-score (-0.5 to 0.5)” is about -0.012, and the highest 2% start at about 0.27. This is one part of the list.

target: T1, Vhr1 (UniProt P40522); assay: PBM E-score (8-mer binding enrichment) (E-score (-0.5 to 0.5)); higher = stronger / more preferred TF binding; most listed sequences are background and not binding sites; settings: protein concentration: 200 nM; construct: GST-full length
T1 sequence: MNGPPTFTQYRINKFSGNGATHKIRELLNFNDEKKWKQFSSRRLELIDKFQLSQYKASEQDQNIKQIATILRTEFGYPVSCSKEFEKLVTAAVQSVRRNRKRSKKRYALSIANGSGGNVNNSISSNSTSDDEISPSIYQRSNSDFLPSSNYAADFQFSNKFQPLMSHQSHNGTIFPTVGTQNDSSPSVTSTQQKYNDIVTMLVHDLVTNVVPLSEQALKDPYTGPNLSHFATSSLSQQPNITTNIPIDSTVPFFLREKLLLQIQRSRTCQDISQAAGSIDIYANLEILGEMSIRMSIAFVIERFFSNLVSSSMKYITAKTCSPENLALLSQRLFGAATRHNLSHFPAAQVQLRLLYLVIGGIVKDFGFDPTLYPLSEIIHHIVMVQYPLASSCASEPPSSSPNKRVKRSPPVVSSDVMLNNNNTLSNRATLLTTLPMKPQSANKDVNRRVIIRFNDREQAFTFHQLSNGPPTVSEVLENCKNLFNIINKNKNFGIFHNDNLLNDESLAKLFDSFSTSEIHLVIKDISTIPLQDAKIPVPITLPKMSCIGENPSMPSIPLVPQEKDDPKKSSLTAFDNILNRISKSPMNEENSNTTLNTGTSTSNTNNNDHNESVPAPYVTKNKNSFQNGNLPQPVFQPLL
Procedure, shortened: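 Yeast transcription factors carrying a GST tag, as full-length proteins or DNA-binding domains, were produced by PURExpress in vitro transcription/translation. About 100-200 nM protein was applied to universal all-10-mer Agilent arrays, double-stranded by primer extension on fresh or once-stripped slides. Bound protein was detected with fluorescent anti-GST, and scans were normalised with masliner. The Universal PBM Analysis Suite gave each ungapped eight-base word, pooled with its reverse complement, an E-score, a modified Wilcoxon-Mann-Whitney statistic.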

Sequence	PBM E-score
GAGTAATC	0.165
GTAAATCA	0.209
AAAATGTT	-0.204
GCTGGACC	-0.106
AGAATCAG	0.283
AGTGCTCC	-0.194
AACCGATT	-0.0104
CGAACCAC	0.137
AAGTACGA	0.0855
GGGACGGA	-0.24
CAGGCATA	0.0822
GATAGCAC	-0.141
CGGAACAG	0.00759
GAAGCCGC	-0.131
TCCCACCA	-0.112
GACTGCTC	0.073
ATTAGGTA	-0.0382
GCGCCGCA	0.0412
GCGCATAA	-0.102
ATCTTACC	-0.135
GCATAGGA	-0.0605
ATCTCCCA	0.0996
ACTAGGTG	0.0989
GAAGTGAA	0.0112
GTCCGCTA	-0.117

Sequence	PBM E-score
AGCGCCCA	-0.00043
TGCCTAAA	-0.262
CAACGCTG	0.027
AGCGTTTA	-0.296
ACGTCTTA	-0.166
AGAATCTG	-0.173
GCTAAAAA	-0.265
CACGCATA	-0.0871
CAGAGTAC	0.00375
CGCTGCCG	-0.126
GACGGGCC	-0.177
TAACTAAA	-0.23
CCGCGGCC	0.106
ACTGCAAC	0.0291
GCCTAGCA	-0.252
CATCTAAA	-0.104
AAATGCCT	-0.182
GACATGTA	0.0533
GGGGCAAA	-0.0819
GCCGAAGA	-0.187
CCGGTCAG	-0.00524
ATCCGGTC	-0.0747
GTCCATAA	-0.169
AATATCCT	0.0597
GTGGCCTA	-0.0848

Sequence	PBM E-score
CCCTTTCA	-0.259
ATTAAGGC	-0.124
CACTTTAC	0.0069
CTAATCAA	0.12
CGTCTAAC	-0.16
AGGACGCC	-0.04
CAGCGAAA	-0.228
GGTTACGA	-0.144
ATGGGGTG	0.216
TTGATAAA	0.0581
ATAACGGG	-0.137
ATGAATCA	0.423
GACAAGTC	-0.088
CCGTATCA	0.176
GCTAATAC	0.0958
CTCTTCCA	-0.204
ACATTATA	0.101
ATTACAAG	-0.0785
CACGGGGA	0.087
CGAGCTCA	0.144
CAGGTAAG	-0.0858
AGGCGGTA	-0.00203
GTAAGCGA	-0.0171
CCATAAAC	-0.0214
TCCGAGAA	-0.307

Sequence	PBM E-score
GAATGACA	-0.165
AATAGCGT	-0.0117
CATACACG	0.176
CTGCAGGA	0.0985
AGGTCGAA	0.077
GGGTGGCA	-0.0446
GGTCCCAC	-0.0806
AGACGCGC	-0.0633
CGACCCGA	-0.138
AAGAATGT	-0.105
CCAGGCGG	0.208
GCGTAACC	-0.214
CGCCACCA	0.023
ATGGTTAC	0.213
CATATAGC	0.191
ATCGGCTA	0.0495
TATAACGA	0.0671
CCCACCTA	0.0868
ACGAGTGC	-0.173
ACTAAACC	0.139
CCGTTGAA	-0.205
CAGAATCC	0.0298
GAGTGACC	-0.00862
GGCAATTA	0.0696
AAGGGCAG	-0.0473

Sequence	PBM E-score
ACAGTAAA	4e-05
GGATTGGA	0.0389
CGACTTAC	-0.00322
AATCGCAA	0.044
CCTTCGTA	-0.0866
CTTTCGGC	-0.0681
CACATCTG	0.147
AGTACGGG	-0.095
TAAGCTAA	-0.00312
ATACCGGC	0.0247
CTGTTTAA	0.0359
TCTGGTAA	0.11
CGATAGTC	0.115
CGTGGCAA	-0.29
TCATTTAA	-0.021
GTACCGAC	0.0481
AGAACTCT	-0.12
AGGCACCG	-0.0242
GAGAGGCA	-0.0672
CCACACCA	0.141
AAGTAAAC	-0.0688
GTCGCCAC	0.0894
ATGGATAC	0.26
AAACAAAG	-0.0465
AGAATCGC	0.058

Sequence	PBM E-score
CACTATGC	0.0461
GTCGTACA	0.108
ATGCGGAA	-0.11
CCACACGG	-0.0821
AACACTAC	0.116
CGGCACAG	0.00884
GAGATTTA	-0.176
GGATTGAC	0.0766
CCGCGAAA	-0.0877
AGCCGTGC	-0.176
ACTTAATA	0.0637
CAAAGCTA	-0.191
ACGCCAAA	-0.156
CCCGTCAC	-0.0227
ATCGATGC	0.123
AGAAGCCA	-0.0236
ATGAGGAG	-0.157
GTCCAGGA	-0.224
GCATTTCC	0.0502
TTCACCAA	-0.179
AGTATCAC	-0.0911
GATCTTCC	-0.288
AATCACGG	0.259
GACGATAA	0.00693
CCGACTAG	0.0404

Sequence	PBM E-score
AAATTTAT	-0.0978
CTTAATGA	-0.0997
AGCGGCAT	0.102
CGATAACA	0.11
CAACACTG	0.0874
CGCTACCC	0.0326
AAACTGCC	-0.0499
CGTTCAGA	-0.214
AGTACAAA	0.123
CGGCGATA	0.174
CCGCAGAG	-0.0558
AACACGAG	-0.0814
AGCTAACC	-0.0353
ACTGATAT	0.169
ACACAAAT	0.0879
AAGCATGG	0.0495
ATGATGCA	0.16
ATTGCATA	0.147
ATCGTTGG	0.0315
AAGTATCA	0.0499
AAGATTAC	-0.0671
ACCTGAGG	-0.134
